# Laboratory results: PubChem BioAssay AID493208 (National Center for Advancing Translational Sciences (NCATS), 2011)
# The whole screen tested about 44,000 compounds, of which about 340 (0.77%) were called active. About 5% were inconclusive and are not listed. The call rests on the fitted dose curve; in most records, active means well fitted inhibition curve with a large enough effect; inconclusive means small, poorly fitted or top-dose-only effect; inactive means flat fitted curve, though single readings scatter. This is one part of the list.
# Test: Acumen qHTS Assay for Inhibitors of the mTORC1 Signaling Pathway in MEF (Tsc2-/-, p53-/-) Cells: Sytravon;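 further: plate controls were DMSO for no effect and rapamycin for full effect; nearly all actives have a fitted effect of over 50% in size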
# Conditions: phospho-rpS6 immunofluorescence/PI, 24 h; series mostly up to 38.3 µM; activity change, negative = inhibition: at the top concentration
# Summary of the method: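 Readout is phospho-S6 Alexa 488 signal normalized to PI per well, reported as % active cells with thresholds set from rapamycin (7.5 nM) and DMSO controls. Cells: Tsc2-/-, p53-/- MEFs, 24 hrs compound at 37 C; PI cell number serves as viability.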
row,Structure (SMILES),"activity change, negative = inhibition"
1,Cn1c(C(=O)N2CCC(C(=O)NCCc3ccc(S(N)(=O)=O)cc3)CC2)cc2sccc21,inactive: -0.545%
2,COc1ccc(-c2nc3scc(CCNS(=O)(=O)c4cccc(C(C)=O)c4)n3n2)cc1,inactive: -2.87%
3,CCc1ccc(NC(=O)Cn2c(=O)ccc3cc(S(=O)(=O)N4CCCC4)ccc32)cc1,inactive: -1.4%
4,Cc1ccc(NC(=O)CSc2nnc(C)c(=O)[nH]2)cc1,inactive: 5.73%
5,CCOC(=O)c1cccc(Nc2cc(C)nc(C)n2)c1,inactive: -12.2%
6,Cc1nnc2c3ccccc3nc(N3CCN(c4cccc(Cl)c4)CC3)n12,inactive: -3.62%
7,CCOCCCn1c(=N)c(C(=O)NC2CCCC2)cc2c(=O)n3cccc(C)c3nc21,inactive: -6.19%
8,Cc1noc(Cn2c(=O)c3ccccc3n(CC(=O)Nc3ccccc3C(F)(F)F)c2=O)n1,inactive: -6.53%
9,CCc1ccc(NC(=O)c2oc3c(c2C)-c2[nH]ncc2CC3)cc1,inactive: 2.11%
10,COc1ccccc1CNC(=O)CN1C(=O)CCCc2ccccc21,inactive: -0.696%
11,CCCCOc1ccc(C2c3c(oc4ccccc4c3=O)C(=O)N2c2nc(C)c(C(=O)OCC)s2)cc1OC (stereo unspecified),inactive: 8.55%
12,CCc1ccc(NC(=O)c2ccc3c(c2)c(C)c(C)n3Cc2ccccc2)cc1,inactive: -13.7%
13,CC(=O)c1ccc(NC(=O)c2ccc(CN3C(=O)CCn4nc(C)cc43)cc2)cc1,inactive: -1.25%
14,COc1ccc(S(=O)(=O)NCCc2cn3ccsc3n2)cc1,inactive: -12.2%
15,Cc1ccc(CCNC(=O)CN2CCN(Cc3ccc(Cl)cc3)C2=O)cc1,inactive: -6.45%
16,O=C(CCC1N=C2c3ccccc3N=C(SCc3cccc(F)c3)N2C1=O)NCc1ccc(F)cc1 (stereo unspecified),inactive: -2.43%
17,CCc1ccc(NC(=O)Cn2nnc(C(=O)Nc3cc(C)ccc3OC)c2N)cc1,inactive: -6.97%
18,O=C(Nc1ccccc1Br)N1CCN2CCCCC2C1 (stereo unspecified),inactive: -12%
19,CCc1ccc(NC(=O)CN2C(=O)CCSc3ccc(S(=O)(=O)N4CCCC4)cc32)cc1,inactive: 2.43%
20,COc1ccc(C(=O)c2cn(Cc3cccc(C)c3)c3cc4c(cc3c2=O)OCCO4)cc1OC,inactive: -8.48%
21,Cc1nn2c(=O)cc(COC(=O)c3ccc(F)cc3)nc2s1,inactive: 0.712%
22,Cc1ccc(N(C(=O)c2cccc(C)c2)S(=O)(=O)c2ccc(Cl)cc2)cc1,inactive: -11.4%
23,COc1ccc(CCNC(=O)Cn2ccc3cc(S(=O)(=O)N4CCCCC4)ccc32)cc1OC,inactive: -2.65%
24,COC(=O)c1ccccc1NC(=O)c1cc(=O)c2ccc(C)c(C)c2o1,inactive: 0.224%

row,Structure (SMILES),"activity change, negative = inhibition"
1,Cn1nnnc1SCCCNCc1ccccc1OCc1ccccc1F,inactive: -10.9%
2,O=S(=O)(c1ccc2[nH]c3c(c2c1)CCCCC3)N1CCN(c2ccccc2)CC1,inactive: 5.27%
3,COc1cccc(CNC(=O)c2cc(-c3cccc(OC)c3)n[nH]2)c1,inactive: -1.05%
4,O=C(CCn1cnc2ccccc2c1=O)NCc1ccccc1,inactive: -4.5%
5,Cc1ccc(N2CCN(C(=O)CCc3c(C)nc4c(c3C)c(=O)n(C)c(=O)n4C)CC2)c(C)c1,inactive: 6.15%
6,Cc1cccc(C)c1NC(=O)c1oc2c(c1C)-c1nn(Cc3ccccc3)cc1CC2,inactive: 3.05%
7,CCCSCCCNC(=O)CN1C(=O)COc2ccc(S(=O)(=O)N3CCC(C)CC3)cc21,inactive: 4.71%
8,COc1cc(OC)c(N(C)C(=O)c2nn(C)c3c2CSc2ccccc2-3)cc1Cl,inactive: -4.82%
9,CN1C(=O)Cc2cc(S(=O)(=O)CCC(=O)Nc3ccccc3)ccc21,inactive: -3.81%
10,CCN(CC)CCCNC(=O)Cn1nc(N2CCN(c3ccccc3OC)CC2)ccc1=O,inactive: -9.16%
11,Cc1nc2c(C(=O)N(C)Cc3ccccc3)c[nH]n2c(=O)c1Cc1ccc(Cl)cc1,inactive: -21%
12,Cc1ccc(Cl)cc1N1CCN(C(=O)c2ccc3c(c2)N(Cc2ccccc2F)C(=O)c2ccccc2S3(=O)=O)CC1,inactive: -10.5%
13,O=C(NCC(c1ccccc1)c1ccccc1)c1nn(-c2ccccc2Cl)nc1CO,inactive: -3.69%
14,CCOc1ccccc1NC(=O)c1sc(-n2nc(C)c(CCC(C)C)c2C)nc1C,inactive: -10.6%
15,CCc1ccc(S(=O)(=O)Nc2ccc(-c3ccc(N4CCCCCC4)nn3)cc2)cc1,inactive: -4.54%
16,CCCCOc1ccc(S(=O)(=O)N2CCN(c3ccccc3OCC)CC2)cc1,inactive: 0.43%
17,COc1ccc(Cl)cc1NC(=O)CN(C)S(=O)(=O)c1ccc(Br)s1,inactive: 1.4%
18,Cc1cc(C)c2oc(-c3cccc(NC(=O)c4ccco4)c3)nc2c1,inactive: 8.91%
19,CCC1CCCCN1CCCNC(=O)CN1C(=O)CSc2ccc(S(=O)(=O)N3CCC(C)CC3)cc21 (stereo unspecified),inactive: -21%
20,Cc1cc2c(c3oc(=O)c4ccccc4c13)CN(Cc1ccc(F)cc1)CO2,inactive: -0.117%
21,COCCCNC(=O)CCC(=O)N1Cc2ccccc2Oc2ncccc21,inactive: -8.84%
22,O=C(Nc1cccc(Cl)c1)Nc1ccccc1OCc1cc(=O)n2ccccc2n1,inactive: 1.42%
23,Cc1ccc(CNC(=O)Cn2ccn(-c3ccc(C)c(C)c3)c(=O)c2=O)cc1,inactive: 5.45%
24,CN(C)c1ccc(CNC(=O)CN(C)S(=O)(=O)c2ccc3c(c2)c(=O)n(C)c(=O)n3C)cc1,inactive: -14.6%

row,Structure (SMILES),"activity change, negative = inhibition"
1,Cc1ccc(CNC(=O)CN(c2ccc(Cl)cc2Cl)S(=O)(=O)c2ccccc2)cc1,inactive: 1.74%
2,COc1cccc(C(=O)Nc2c(C(=O)NC(C)(C)C)oc3ccccc23)c1,inactive: -16.7%
3,Cc1ccc(CCNC(=O)Cn2c(-c3cccs3)cc3cc(F)ccc32)cc1,inactive: -15.1%
4,CCc1cccc2sc(N3CCN(C(=O)c4cc5ccccc5cc4OC)CC3)nc12,inactive: -12.8%
5,CCc1cccc(NC(=O)Cn2c(=O)n(CCc3ccc(OC)c(OC)c3)c(=O)c3ccccc32)c1,inactive: -5.49%
6,COc1ccc(CC(=O)NCc2ccc3c(c2)CCN3C(=O)c2ccc(C)cc2)cc1OC,inactive: -7.22%
7,O=C(Cn1ncc2c(=O)oc3ccccc3c21)NCc1ccccc1Cl,inactive: 4.65%
8,O=C(Cn1ncc2c3ccccc3n(Cc3ccccc3F)c2c1=O)NCCc1ccc(Cl)cc1,inactive: -0.368%
9,CCOC(=O)c1c(C)[nH]c(C)c1S(=O)(=O)N1CCCC(C(=O)Nc2ccc(OC)c(Cl)c2)C1 (stereo unspecified),inactive: 1.05%
10,COc1cccc(CNC(=O)CSc2c3c(nc4ccc(Cl)cc24)CCCC3)c1OC,inactive: -25.6%
11,CC1=C(C(=O)Nc2ccc(C)cc2C)C(c2ccc(Cl)cc2)n2nc(C(=O)OC(C)C)nc2N1 (stereo unspecified),inactive: -14.5%
12,CCc1ccc(NC(=O)c2cc3sc(Cl)cc3n2C)cc1,inactive: -3.49%
13,O=C(Cn1cnc(S(=O)(=O)N2CCCC2)c1)Nc1ccc(OC(F)(F)F)cc1,inactive: -7.23%
14,Cc1ccccc1Nc1nnc(-c2ccc(C)c(S(=O)(=O)N3CCOCC3)c2)c2ccccc12,inactive: 5.15%
15,COc1ccc(OC)c(NC(=O)Cn2cnc3c(oc4ccccc43)c2=O)c1,inactive: 10.5%
16,COc1ccc(CN2COc3ccc4c(-c5ccccc5)cc(=O)oc4c3C2)cc1,inactive: -11.9%
17,CCOC(=O)c1cc(-c2ccccc2)n(CC(=O)Nc2ccc(OC)cc2OC)c1C,inactive: -7.83%
18,CCOc1ccc(NC(=O)C2CCN(S(=O)(=O)c3cc(-c4noc(C)n4)ccc3C)CC2)cc1,inactive: 0.196%
19,CC(C)CC(=O)NCc1nc2cccnc2n1Cc1ccccc1,inactive: 0.841%
20,Cc1ccccc1CNC(=O)c1ccc(Cn2c(SCc3cccc(F)c3)nc3cccnc32)cc1,inactive: -6.68%
21,CCOC(=O)c1nc(Nc2ccc(C(=O)OCC(C)C)cc2)c2ccccc2n1,inactive: -15.6%
22,O=C(CCc1cn(Cc2ccccc2F)c2ccccc12)NCc1ccc(Cl)cc1,inactive: -10.8%
23,Cc1ccc2oc(C(=O)N(Cc3cccc(F)c3)C3CCS(=O)(=O)C3)c(C)c2c1 (stereo unspecified),inactive: 3.02%
24,COc1ccc(N2CCN(C(=O)c3cc(S(=O)(=O)N4CCCCCC4)cn3C)CC2)cc1,inactive: -2.13%

row,Structure (SMILES),"activity change, negative = inhibition"
1,COc1cccc(NC(=O)N2CCC(n3c(C)nc4cccnc43)CC2)c1,inactive: 0%
2,O=C(NCc1ccccc1Cl)C1CCC(CNS(=O)(=O)c2ccc(Cl)cc2)CC1 (stereo unspecified),inactive: -3.25%
3,COc1cccc(Cn2c(=O)n(-c3ccc(C)c(F)c3)c(=O)c3sc4ccccc4c32)c1,inactive: -3.47%
4,COc1ccc(CNC(=O)C2CCN(Cc3nc(-c4ccc(OC)c(OC)c4)oc3C)CC2)cc1,inactive: 4.66%
5,Cc1ccc(-c2cc(C(F)(F)F)n3nc(-c4ccc(Cl)cc4)cc3n2)cc1,inactive: -21%
6,COc1cccc(OC)c1C(=O)Nc1nnc(C)s1,inactive: 12.6%
7,O=C(COC(=O)C(Cc1c[nH]c2ccccc12)NC(=O)c1ccc(Br)cc1)c1ccc(Cl)cc1 (stereo unspecified),inactive: -2.63%
8,COc1ccccc1N1CCN(C(=O)c2sc3nc4n(c(=O)c3c2C)CCC4)CC1,inactive: 4.42%
9,CCOc1ccc(C(=O)c2cn(Cc3ccccc3OC)c3cc4c(cc3c2=O)OCCO4)cc1,inactive: -8.22%
10,CCCCN(CC)CCNC(=O)c1cn(CCOC)c(=O)c2c1c1ccccc1n2C,inactive: -3.53%
11,CCC(=O)N1CCc2cc(S(=O)(=O)CCC(=O)Nc3ccc(Cl)c(C(F)(F)F)c3)ccc21,inactive: -12.1%
12,O=C(NC1CC(=O)N(c2cccc(F)c2)C1)c1ccc(S(=O)(=O)N2CCOCC2)cc1 (stereo unspecified),inactive: 3.55%
13,COc1ccccc1CN1COc2ccc3c(C)cc(=O)oc3c2C1,inactive: 0%
14,Cc1ccc(NC(=O)Cn2c(=O)oc3ccccc32)cc1Cl,inactive: 1.14%
15,CCOC(=O)c1ccc(NC(=O)CSc2ccc(-c3sc(C)nc3C)nn2)cc1,inactive: -0.596%
16,COc1ccc(C(=O)c2oc3ccccc3c2NC(=O)c2ccc(F)cc2)cc1,inactive: 9.6%
17,O=C(c1cn(CCOc2ccccc2F)c2ccccc12)C1CCCCC1,inactive: -2.29%
18,COc1ccc(Cn2ccc3nc(C)c(C(=O)N4CCN(c5ccccc5)CC4)cc3c2=O)cc1,inactive: -4.95%
19,CCOC(=O)c1ccc(NC(=O)c2cn(-c3ccccc3)nc2-c2ccc(Br)cc2)cc1,inactive: -3.99%
20,COc1ccc(NC(=O)CSc2oc(-c3cccs3)nc2S(=O)(=O)c2ccc(Br)cc2)c(OC)c1,inactive: -2.57%
21,Cc1nc2ccn(Cc3cccs3)c(=O)c2cc1C(=O)NCc1ccccc1,inactive: 0.977%
22,CCc1nonc1NC(=O)c1oc2cc(C)c(Cl)cc2c1C,inactive: 1.11%
23,Cc1cccc(Cn2cc(C(=O)c3ccccc3)c(=O)c3cc4c(cc32)OCO4)c1,inactive: -0.286%
24,Cc1ccc(Nc2sc(C(=O)c3ccccc3)c(N)c2C(=O)NC(C)C)cc1,inactive: -0.654%
